This is one part of the list.
Legend:
Assay in all cases: glycan array binding signal (z-score within array); higher = stronger binding
Settings in all cases: glycan notation: IUPAC condensed, linker removed
[1] = target: Neu5Ac(a2-3)Gal(b1-4)GlcNAc(b1-3)Gal
How it was run: (§1)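 Arrays were curated from the Consortium for Functional Glycomics database, 3228 in total, and kept only where the protein sequence was available. Binding is expressed as a within-array Z-score. This score was averaged across arrays of the same protein sequence at different concentrations or buffers and across linkers, and negative values can be read as non-binding.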

[2] = target: Neu5Ac(a2-3)Gal(b1-4)GlcNAc(b1-3)Gal(b1-3)GlcNAc
How it was run: as §1

[3] = target: Neu5Ac(a2-3)Gal(b1-4)GlcNAc(b1-3)Gal(b1-4)GlcNAc
How it was run: as §1

[4] = target: Neu5Ac(a2-3)Gal(b1-4)GlcNAc(b1-3)Gal(b1-4)GlcNAc(b1-2)Man(a1-3)[Neu5Ac(a2-3)Gal(b1-4)GlcNAc(b1-3)Gal(b1-4)GlcNAc(b1-2)Man(a1-6)]Man(b1-4)GlcNAc(b1-4)GlcNAc
How it was run: as §1

[5] = target: Neu5Ac(a2-3)Gal(b1-4)GlcNAc(b1-3)Gal(b1-4)GlcNAc(b1-3)Gal(b1-4)GlcNAc
How it was run: as §1

[6] = target: Neu5Ac(a2-3)Gal(b1-4)GlcNAc(b1-3)Gal(b1-4)GlcNAc(b1-3)Gal(b1-4)GlcNAc(b1-2)Man(a1-3)[Neu5Ac(a2-3)Gal(b1-4)GlcNAc(b1-3)Gal(b1-4)GlcNAc(b1-3)Gal(b1-4)GlcNAc(b1-2)Man(a1-6)]GalNAc
How it was run: as §1

[7] = target: Neu5Ac(a2-3)Gal(b1-4)GlcNAc(b1-3)Gal(b1-4)GlcNAc(b1-3)GalNAc
How it was run: as §1

[8] = target: Neu5Ac(a2-3)Gal(b1-4)GlcNAc(b1-3)Gal(b1-4)GlcNAc(b1-3)[Neu5Ac(a2-3)Gal(b1-4)GlcNAc(b1-3)Gal(b1-4)GlcNAc(b1-6)]GalNAc
How it was run: as §1

[9] = target: Neu5Ac(a2-3)Gal(b1-4)GlcNAc(b1-3)Gal(b1-4)GlcNAc(b1-6)[Gal(b1-3)]GalNAc
How it was run: as §1

[10] = target: Neu5Ac(a2-3)Gal(b1-4)GlcNAc(b1-3)Gal(b1-4)[Fuc(a1-3)]GlcNAc
How it was run: as §1

[11] = target: Neu5Ac(a2-3)Gal(b1-4)GlcNAc(b1-3)GalNAc
How it was run: as §1

[12] = target: Neu5Ac(a2-3)Gal(b1-4)GlcNAc(b1-3)[Neu5Ac(a2-3)Gal(b1-4)GlcNAc(b1-6)]GalNAc
How it was run: as §1

[13] = target: Neu5Ac(a2-3)Gal(b1-4)GlcNAc(b1-6)GalNAc
How it was run: as §1

[14] = target: Neu5Ac(a2-3)Gal(b1-4)GlcNAc(b1-6)[Gal(b1-3)]GalNAc
How it was run: as §1

[15] = target: Neu5Ac(a2-3)Gal(b1-4)GlcNAc(b1-6)[Neu5Ac(a2-3)Gal(b1-3)]GalNAc
How it was run: as §1

[16] = target: Neu5Ac(a2-3)Gal(b1-4)GlcNAc6S
How it was run: as §1

[17] = target: Neu5Ac(a2-3)Gal(b1-4)[Fuc(a1-3)]GlcNAc
How it was run: as §1

[18] = target: Neu5Ac(a2-3)Gal(b1-4)[Fuc(a1-3)]GlcNAc(b1-2)Man
How it was run: as §1

[19] = target: Neu5Ac(a2-3)Gal(b1-4)[Fuc(a1-3)]GlcNAc(b1-3)Gal
How it was run: as §1

[20] = target: Neu5Ac(a2-3)Gal(b1-4)[Fuc(a1-3)]GlcNAc(b1-3)Gal(b1-4)GlcNAc
How it was run: as §1

[21] = target: Neu5Ac(a2-3)Gal(b1-4)[Fuc(a1-3)]GlcNAc(b1-3)Gal(b1-4)[Fuc(a1-3)]GlcNAc(b1-3)Gal(b1-4)[Fuc(a1-3)]GlcNAc
How it was run: as §1

[22] = target: Neu5Ac(a2-3)Gal(b1-4)[Fuc(a1-3)]GlcNAc(b1-3)GalNAc
How it was run: as §1

[23] = target: Neu5Ac(a2-3)Gal(b1-4)[Fuc(a1-3)]GlcNAc(b1-6)[Gal(b1-3)]GalNAc
How it was run: as §1

[24] = target: Neu5Ac(a2-3)Gal(b1-4)[Fuc(a1-3)]GlcNAc(b1-6)[Neu5Ac(a2-3)Gal(b1-3)]GalNAc
How it was run: as §1

[25] = target: Neu5Ac(a2-3)Gal(b1-4)[Fuc(a1-3)]GlcNAc6S
How it was run: as §1

[26] = target: Neu5Ac(a2-3)Gal6S(b1-4)GlcNAc
How it was run: as §1

[27] = target: Neu5Ac(a2-3)Gal6S(b1-4)[Fuc(a1-3)]GlcNAc
How it was run: as §1

Neu5Ac(a2-3)GalNAc = target: Neu5Ac(a2-3)GalNAc
How it was run: as §1

[28] = target: Neu5Ac(a2-3)GalNAc(b1-4)GlcNAc
How it was run: as §1

[29] = target: Neu5Ac(a2-3)[GalNAc(b1-4)]Gal(b1-4)Glc
How it was run: as §1

[30] = target: Neu5Ac(a2-3)[GalNAc(b1-4)]Gal(b1-4)GlcNAc
How it was run: as §1

[31] = target: Neu5Ac(a2-3)[GalNAc(b1-4)]Gal(b1-4)GlcNAc(b1-3)GalNAc
How it was run: as §1

[32] = target: Neu5Ac(a2-3)[Neu5Ac(a2-6)]GalNAc
How it was run: as §1

Neu5Ac(a2-6)Gal = target: Neu5Ac(a2-6)Gal
How it was run: as §1

[33] = target: Neu5Ac(a2-6)Gal(b1-3)GlcNAc(b1-3)[Gal(b1-4)GlcNAc(b1-6)]Gal(b1-4)Glc
How it was run: as §1

Neu5Ac(a2-6)Gal(b1-4)Glc = target: Neu5Ac(a2-6)Gal(b1-4)Glc
How it was run: as §1

[34] = target: Neu5Ac(a2-6)Gal(b1-4)GlcNAc
How it was run: as §1

[35] = target: Neu5Ac(a2-6)Gal(b1-4)GlcNAc(b1-2)Man
How it was run: as §1

[36] = target: Neu5Ac(a2-6)Gal(b1-4)GlcNAc(b1-2)Man(a1-3)Man(b1-4)GlcNAc(b1-4)GlcNAc
How it was run: as §1

[37] = target: Neu5Ac(a2-6)Gal(b1-4)GlcNAc(b1-2)Man(a1-3)[Gal(b1-4)GlcNAc(b1-2)Man(a1-6)]Man(b1-4)GlcNAc(b1-4)GlcNAc
How it was run: as §1

[38] = target: Neu5Ac(a2-6)Gal(b1-4)GlcNAc(b1-2)Man(a1-3)[GlcNAc(b1-2)Man(a1-6)]Man(b1-4)GlcNAc(b1-4)GlcNAc
How it was run: as §1

[39] = target: Neu5Ac(a2-6)Gal(b1-4)GlcNAc(b1-2)Man(a1-3)[GlcNAc(b1-4)][Neu5Ac(a2-6)Gal(b1-4)GlcNAc(b1-2)Man(a1-6)]Man(b1-4)GlcNAc(b1-4)GlcNAc
How it was run: as §1

[40] = target: Neu5Ac(a2-6)Gal(b1-4)GlcNAc(b1-2)Man(a1-3)[Man(a1-6)]Man(b1-4)GlcNAc(b1-4)GlcNAc
How it was run: as §1

[41] = target: Neu5Ac(a2-6)Gal(b1-4)GlcNAc(b1-2)Man(a1-3)[Neu5Ac(a2-3)Gal(b1-4)GlcNAc(b1-2)Man(a1-6)]Man(b1-4)GlcNAc(b1-4)GlcNAc
How it was run: as §1

[42] = target: Neu5Ac(a2-6)Gal(b1-4)GlcNAc(b1-2)Man(a1-3)[Neu5Ac(a2-6)Gal(b1-4)GlcNAc(b1-2)Man(a1-6)]Man(b1-4)GlcNAc(b1-4)GlcNAc
How it was run: as §1

B1: BDCA-2 (Homo sapiens), Q8WTT0 (protein)
chain: MVPEEEPQDREKGLWWFQLKVWSMAVVSILLLSVCFTVSSVVPHNFMYSKTVKRLSKLREYQQYHPSLTCVMEGKDIEDWSCCPTPWTSFQSSCYFISTGMQSWTKSQKNCSVMGADLVVINTREEQDFIIQNLKRNSSYFLGLSDPGGRRHWQWVDQTPYNENVTFWHSGEPNNLDERCAIINFRSSEEWGWNDIHCHVPQKSICKMKKIYI
- glycan array binding signal (z-score) [1]: -0.192
- glycan array binding signal (z-score) [2]: -0.175
- glycan array binding signal (z-score) [3]: -0.019
- glycan array binding signal (z-score) [4]: -0.162
- glycan array binding signal (z-score) [5]: -0.295
- glycan array binding signal (z-score) [6]: -0.131
- glycan array binding signal (z-score) [7]: -0.175
- glycan array binding signal (z-score) [8]: -0.179
- glycan array binding signal (z-score) [9]: -0.188
- glycan array binding signal (z-score) [10]: -0.186
- glycan array binding signal (z-score) [11]: -0.156
- glycan array binding signal (z-score) [12]: -0.18
- glycan array binding signal (z-score) [13]: -0.184
- glycan array binding signal (z-score) [14]: -0.148
- glycan array binding signal (z-score) [15]: -0.163
- glycan array binding signal (z-score) [16]: -0.021
- glycan array binding signal (z-score) [17]: 0.055
- glycan array binding signal (z-score) [18]: -0.175
- glycan array binding signal (z-score) [19]: -0.161
- glycan array binding signal (z-score) [20]: -0.014
- glycan array binding signal (z-score) [21]: -0.193
- glycan array binding signal (z-score) [22]: -0.174
- glycan array binding signal (z-score) [23]: -0.151
- glycan array binding signal (z-score) [24]: -0.181
- glycan array binding signal (z-score) [25]: 0.015
- glycan array binding signal (z-score) [26]: -0.077
- glycan array binding signal (z-score) [27]: -0.105
- glycan array binding signal (z-score) (Neu5Ac(a2-3)GalNAc): -0.208
- glycan array binding signal (z-score) [28]: -0.249
- glycan array binding signal (z-score) [29]: -0.247
- glycan array binding signal (z-score) [30]: -0.241
- glycan array binding signal (z-score) [31]: -0.141
- glycan array binding signal (z-score) [32]: -0.244
- glycan array binding signal (z-score) (Neu5Ac(a2-6)Gal): -0.173
- glycan array binding signal (z-score) [33]: -0.181
- glycan array binding signal (z-score) (Neu5Ac(a2-6)Gal(b1-4)Glc): -0.252
- glycan array binding signal (z-score) [34]: -0.282
- glycan array binding signal (z-score) [35]: -0.15
- glycan array binding signal (z-score) [36]: -0.162
- glycan array binding signal (z-score) [37]: 1.09
- glycan array binding signal (z-score) [38]: -0.185
- glycan array binding signal (z-score) [39]: -0.177
- glycan array binding signal (z-score) [40]: -0.117
- glycan array binding signal (z-score) [41]: -0.156
- glycan array binding signal (z-score) [42]: -0.099

— the supplement of paper PMC8728848
